Data: PubChem BioAssay AID1460 (National Center for Advancing Translational Sciences (NCATS), 2008)
Where “and” joins values, the source holds several entries; their conditions need not be identical. Equal entries are not always repeated. About 5,800 (2.1%) of roughly 270,000 compounds were called active. The inconclusive results got no clear call from the source; some entries with a clear call stand among them for comparison. The call rests on the fitted dose curve; in most records, active means well fitted inhibition curve with a large enough effect; inconclusive means small, poorly fitted or top-dose-only effect; inactive means flat fitted curve, though single readings scatter. Potencies beside an inconclusive call are fits to weak or partial responses and may not hold up.

The molecules below were run against Microtubule-associated protein tau (Homo sapiens) (UniProt P10636) (assay: qHTS for Inhibitors of Tau Fibril Formation, Thioflavin T Binding). Settings: recombinant tau K18 P301L, heparin-induced fibrillization, ThT fluorescence; series mostly up to 57.4 µM; activity, negative = inhibition: at the top concentration.
Method in brief: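 Using a mix of unlabeled (15 uM) and Alexa 594-labeled (0.24 uM) tau K18 P301L, heparin-triggered fibrillization over 6 hr at 37 C was scored by ThT fluorescence.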
Further: nearly all actives have a fitted effect of over 55% in size.
On the % scale 0 is the no-effect control and ±100 the full control effect; potency means the concentration at half of the fitted maximal effect; tags describe the fitted curve by direction and shape.

UniProt P10636, sequence (P10636 whole entry, looked up): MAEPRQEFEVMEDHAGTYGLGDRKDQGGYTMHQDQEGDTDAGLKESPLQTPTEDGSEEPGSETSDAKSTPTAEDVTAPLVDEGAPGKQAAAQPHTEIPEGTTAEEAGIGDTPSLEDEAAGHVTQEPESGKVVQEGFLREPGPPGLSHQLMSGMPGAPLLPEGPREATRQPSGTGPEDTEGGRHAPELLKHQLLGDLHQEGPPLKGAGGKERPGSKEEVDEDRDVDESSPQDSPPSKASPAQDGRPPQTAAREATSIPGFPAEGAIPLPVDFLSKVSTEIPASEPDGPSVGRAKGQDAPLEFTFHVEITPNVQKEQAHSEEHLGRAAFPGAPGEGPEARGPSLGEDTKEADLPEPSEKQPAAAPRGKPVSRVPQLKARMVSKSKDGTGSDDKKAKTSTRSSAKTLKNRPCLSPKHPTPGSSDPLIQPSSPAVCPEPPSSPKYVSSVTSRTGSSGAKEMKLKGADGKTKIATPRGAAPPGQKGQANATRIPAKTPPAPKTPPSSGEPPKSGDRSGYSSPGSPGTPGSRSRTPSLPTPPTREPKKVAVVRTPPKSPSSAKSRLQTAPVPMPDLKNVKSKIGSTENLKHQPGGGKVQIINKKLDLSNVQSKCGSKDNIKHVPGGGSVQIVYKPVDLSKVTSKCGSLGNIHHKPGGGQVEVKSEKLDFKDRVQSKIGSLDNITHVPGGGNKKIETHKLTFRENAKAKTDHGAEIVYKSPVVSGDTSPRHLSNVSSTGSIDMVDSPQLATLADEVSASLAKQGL

Compound | Potency | activity, negative = inhibition
O=c1[nH]c(=S)n(-c2ccc(Br)cc2)c(O)c1C=Nc1ccc(N2CCOCC2)cc1 | active: 25.1 µM | –
COc1ccc2ccc(O)c(CN3CC=C(c4ccccc4)CC3)c2c1 | inconclusive: 11.2 µM [inhibitor, partial curve] | –
COc1ccc(NC(=S)NC(NC(=O)CF)C(Cl)(Cl)Cl)cc1[N+](=O)[O-] (centres undefined) | inconclusive: 8.91 µM [inhibitor, partial curve] | –
O=c1[nH]c(O)c(N=Nc2cccc(S(=O)(=O)N3CCOCC3)c2)c(=O)[nH]1 | – | inactive: -6.35%
CC(C1OC(C)(C)C(O)C1O)C1CC[C@@]2(C)C3=CCC4C(C)(C)C(=O)CC[C@]4(C)C3CC[C@@]12C (some centres undefined) | inconclusive: 39.8 µM [inhibitor, single point] | –
COc1cc2c(cc1O)C(Cc1ccc(O)cc1)NCC2 (centres undefined) | inconclusive: 20 µM [inhibitor, partial curve] | –
O=c1[nH]c(=O)n(C2CCCCC2)c(O)c1C1=Nc2ccccc2SC(c2ccccc2)C1 (centres undefined) | inconclusive: 15.8 µM [inhibitor, partial curve, poor fit] | –
Cc1ccc(-n2nnnc2SCC(=O)Nc2sc(C)c(C)c2C#N)cc1C | inconclusive: 44.7 µM [inhibitor, single point] | –
C/C(=C/CCC(C)[C@H]1CC[C@@]2(C)C3=C(CC[C@]12C)[C@@]1(C)CCC(=O)C(C)(C)[C@@H]1CC3)C(=O)O (some centres undefined) | inconclusive: 15.8 µM [inhibitor, partial curve] | –
O=[N+]([O-])/C=C/c1c(OCc2ccccc2)ccc2ccccc12 | inconclusive: 39.8 µM [inhibitor, single point] | –
C=CCN1C(=O)NC(=O)/C(=C/c2cc3c4c(c2)CCCN4CCC3)C1=O | active: 17.8 µM | –
COc1ccc2oc(=O)c(C(=O)NCCc3c(C)[nH]c4ccc(F)cc34)cc2c1 | inconclusive: 4.47 µM [inhibitor, full curve] | –
O=C(c1cccc([N+](=O)[O-])c1)C12CN3CN(CN(C3)C1)C2 | – | inactive: -0.144%
COCCN1C(=O)NC(=O)/C(=C\c2ccc(Br)cc2)C1=O | inconclusive: 10 µM [inhibitor, partial curve] | –
NC(N)=N/N=C/c1ccc(N2CCOCC2)cc1 | inconclusive: 8.91 µM [inhibitor, partial curve, poor fit] | –
Clc1cccc(/C=N\Nc2nccs2)c1 | inconclusive: 15.8 µM [inhibitor, partial curve, poor fit] | –
O=[N+]([O-])c1ccc(N2CCCC2)c(F)c1Br | inconclusive: 7.94 µM [inhibitor, partial curve] | –
NC(=S)c1cn(C2OC(CO)C(O)C2O)c2ncnc(N)c12 (centres undefined) | inconclusive: 11.2 µM [inhibitor, partial curve] | –
C[C@H]1COC2=C1C(=O)C(=O)c1c2ccc2c1CCCC2(C)C | active: 12.6 µM | –
Cc1ccc2[nH]c3c(c2c1)CN(C(=O)CN1CCSCC1)CC3 | inconclusive: 20 µM [inhibitor, partial curve] | –
C/C(O)=C(\C#N)C(=O)Nc1cc(Br)ccc1Br | inactive | –
CCN(CC)C(=O)c1c(C)[nH]c(=S)c(C#N)c1-c1ccco1 | inconclusive: 31.6 µM [inhibitor, partial curve] | –

Compound | Potency | activity, negative = inhibition
CCCCCc1nc2ccccc2c(=O)n1-c1ccc(C)cc1 | – | inactive: -0.0919%
CC(C)(O)c1[se]c2ccccc2c1I | inconclusive: 39.8 µM [inhibitor, single point] | –
C=Cn1ccnc1P(=S)(c1ccn(C)c1)c1nccn1C=C | – | inactive: 0.217%
CCCCC/C=C\C/C=C\C/C=C\C/C=C\CCCC(=O)NC1CC1 | inconclusive: 39.8 µM [inhibitor, single point] | –
O=c1[nH]c(=O)n(Cc2ccco2)c(O)c1C=NCc1ccco1 | inconclusive: 39.8 µM [inhibitor, single point] | –
Cc1ccc(-n2nc3ccc(NC(=O)COc4ccccc4C)cc3n2)cc1 | inconclusive: 0.891 µM [inhibitor, full curve, poor fit] | –
CCOC(=O)C1=C(N)OC(C)=C(C(=O)OCCOC)C12C(=O)Nc1ccccc12 (centres undefined) | inconclusive: 22.4 µM [inhibitor, partial curve] | –
C=C1C([C@@]2(C)C(OC(C)=O)CC(=O)O[C@@](C)(COC(C)=O)C2CC(=O)OC)C(OC=O)C(OC(=O)C(OC(C)=O)C(C)CC)[C@]2(C)C(c3ccoc3)CC(=O)C12O (some centres undefined) | inconclusive: 17.8 µM [inhibitor, partial curve] | –
Oc1ccc(Cl)cc1Cc1cc(Cl)ccc1O | inconclusive: 39.8 µM [inhibitor, single point] | –
CN1C(=O)/C(=C\c2ccc(N3CCCCC3)o2)C(=O)NC1=S | inconclusive: 7.08 µM [inhibitor, partial curve] | –
CCCCC/C=C\C/C=C\C/C=C\C/C=C\CCCC(=O)NCC(=O)O | inactive and inconclusive: 22.4 µM [inhibitor, partial curve, poor fit] and inconclusive: 17.8 µM [inhibitor, partial curve] | –
COc1cc(CN2C(=O)NC(=O)C3(Cc4cc(C)ccc4N(C)C3)C2=O)cc(OC)c1 (centres undefined) | inconclusive: 22.4 µM [inhibitor, partial curve] | –
CN1C(=O)C(=Cc2ccc(OCCN(C)c3ccccn3)cc2)C(=O)N(C)C1=O | inconclusive: 11.2 µM [inhibitor, partial curve] | –
CCN(CC)CCN=Cc1c(O)n(Cc2ccco2)c(=O)[nH]c1=O | – | inactive: -6.04%
O=[N+]([O-])c1ccccc1CNCCc1ccc(F)cc1 | – | inactive: -2.94%
O=C1CC(=O)N(c2cccc(Cl)c2)C(=O)N1 | inconclusive: 3.55 µM [inhibitor, partial curve] | –
O=C(N=Nc1c(O)[nH]c(=O)[nH]c1=O)C1COc2ccccc2O1 (centres undefined) | active: 28.2 µM | –
Nc1c(C(=O)Nc2ccc(Cl)c(C(F)(F)F)c2)sc2nc3c(cc12)N1CCC3CC1 | inconclusive: 4.47 µM [inhibitor, partial curve] | –
O=C1NC(=O)C2(Cc3ccccc3N3CCCC32)C(=O)N1c1ccccc1 (centres undefined) | inconclusive: 31.6 µM [inhibitor, single point] | –
COC(=O)CCC(=O)Nc1sc(Cc2ccccc2)c(C)c1C(N)=O | inconclusive: 20 µM [inhibitor, partial curve] | –
CC(C)=CCSc1nnc([C@@H](N)Cc2c[nH]c3ccccc23)o1 | – | inactive: -7.93%
CCCCOc1ccc(C(=O)N2CC(=O)Nc3ccc(Br)cc3C2c2ccc(F)cc2)cc1 (centres undefined) | inconclusive: 28.2 µM [inhibitor, partial curve] | –

Compound | Potency | activity, negative = inhibition
C=CCN1CC[C@@]2(C)c3cc(O)ccc3CC1[C@@H]2C | inactive | –
C[C@@H]1OC=C2[C@@H](O)[C@H]3O[C@H]3C(=O)[C@@]23[C@H]1[C@H]1C2=C([C@@H](O)[C@H]4O[C@@H]4C2=O)[C@@H]3O[C@@H]1C | inconclusive: 3.98 µM [inhibitor, partial curve] | –
CC(C)Oc1ccc(C2C(C#N)=C(N)Oc3c2c(=O)oc2ccccc32)cc1 (centres undefined) | – | inactive: -10.9%
O=C(Cc1ccccc1)N1CCN(Cc2ccc([N+](=O)[O-])cc2)CC1 | – | inactive: -2.95%
O=C1CC(c2cccnc2)=NN1c1ccc(Cl)cc1Cl | inconclusive: 3.98 µM [inhibitor, full curve] | –
COc1cccc(-n2c(/C=C/c3ccc(O)c(O)c3)nc3ccccc3c2=O)c1 | inconclusive: 15.8 µM [inhibitor, partial curve] | –
CC(C)[C@H](CO)Nc1nc(Nc2cccc(Cl)c2)c2ncn(C(C)C)c2n1 | inconclusive: 14.1 µM [inhibitor, partial curve, poor fit] | –
CN(C)CCC=C1c2ccccc2CCc2ccccc21 | inconclusive: 12.6 µM [inhibitor, partial curve] | –
COc1ccc(CCn2c(O)c(/C=N/NC(=O)c3ccncc3)c(=O)[nH]c2=O)cc1OC | inconclusive: 8.91 µM [inhibitor, partial curve] | –
COc1ccc(N2C(=O)/C(=C/c3cc(C)n(-c4ccc(C)cn4)c3C)C(=O)NC2=S)c(OC)c1 | inconclusive: 12.6 µM [inhibitor, partial curve] | –
COc1ccc(/C=N/NC(=O)c2cccc([N+](=O)[O-])c2)cc1OC | inconclusive: 15.8 µM [inhibitor, partial curve] | –
COc1ccccc1N1C(=O)NC(=O)/C(=C\c2cnn(-c3ccccc3)c2)C1=O | inconclusive: 3.16 µM [inhibitor, full curve] | –
CN(C)CCNC(=O)c1cccn(Cc2cccc(C(F)(F)F)c2)c1=O | – | inactive: -6.55%
CC(C)OCCCNC(=O)c1c(N)n(Cc2cccs2)c2nc3ccccc3nc12 | inconclusive: 25.1 µM [inhibitor, single point] | –
CCOP(=O)(OCC)C(c1ccccc1)N(C)C=O (centres undefined) | inconclusive: 4.47 µM [inhibitor, full curve] | –
C/C=C(\C)C(=O)OC1C(C)=C2C(C1OC(=O)CCCCC)C(C)(OC(C)=O)CC(OC(=O)CCC)C1(O)C2OC(=O)C1(C)O (centres undefined) | inconclusive: 39.8 µM [inhibitor, single point] | –
Cc1cc(OC(=O)N(C)C)nc2c1c(C)nn2C | – | inactive: -11%
Cc1ccc(N2C(=O)NC(=O)/C(=C/c3cnc(-c4ccccc4)nc3)C2=O)cc1C | active: 15.8 µM | –
C=CCNC(=O)c1c(N)n(CCN2CCOCC2)c2nc3ccccc3nc12 | inconclusive: 28.2 µM [inhibitor, partial curve] | –
NC1CCc2cc(O)c(O)cc2C1 (centres undefined) | inconclusive: 15.8 µM [inhibitor, partial curve] and inconclusive: 10 µM [inhibitor, partial curve] and inconclusive: 11.2 µM [inhibitor, partial curve, poor fit] | –
